Among all 16,000 compounds or so, about 120 (0.75%) were called active. Another 4% or so got no clear call; they are omitted. The call rests on the fitted dose curve; in most records, active means well fitted inhibition curve with a large enough effect; inconclusive means small, poorly fitted or top-dose-only effect; inactive means no such curve, though single readings can be large or run the other way. The list shows a part of the results.

UniProt O95398, sequence (O95398 whole entry, looked up): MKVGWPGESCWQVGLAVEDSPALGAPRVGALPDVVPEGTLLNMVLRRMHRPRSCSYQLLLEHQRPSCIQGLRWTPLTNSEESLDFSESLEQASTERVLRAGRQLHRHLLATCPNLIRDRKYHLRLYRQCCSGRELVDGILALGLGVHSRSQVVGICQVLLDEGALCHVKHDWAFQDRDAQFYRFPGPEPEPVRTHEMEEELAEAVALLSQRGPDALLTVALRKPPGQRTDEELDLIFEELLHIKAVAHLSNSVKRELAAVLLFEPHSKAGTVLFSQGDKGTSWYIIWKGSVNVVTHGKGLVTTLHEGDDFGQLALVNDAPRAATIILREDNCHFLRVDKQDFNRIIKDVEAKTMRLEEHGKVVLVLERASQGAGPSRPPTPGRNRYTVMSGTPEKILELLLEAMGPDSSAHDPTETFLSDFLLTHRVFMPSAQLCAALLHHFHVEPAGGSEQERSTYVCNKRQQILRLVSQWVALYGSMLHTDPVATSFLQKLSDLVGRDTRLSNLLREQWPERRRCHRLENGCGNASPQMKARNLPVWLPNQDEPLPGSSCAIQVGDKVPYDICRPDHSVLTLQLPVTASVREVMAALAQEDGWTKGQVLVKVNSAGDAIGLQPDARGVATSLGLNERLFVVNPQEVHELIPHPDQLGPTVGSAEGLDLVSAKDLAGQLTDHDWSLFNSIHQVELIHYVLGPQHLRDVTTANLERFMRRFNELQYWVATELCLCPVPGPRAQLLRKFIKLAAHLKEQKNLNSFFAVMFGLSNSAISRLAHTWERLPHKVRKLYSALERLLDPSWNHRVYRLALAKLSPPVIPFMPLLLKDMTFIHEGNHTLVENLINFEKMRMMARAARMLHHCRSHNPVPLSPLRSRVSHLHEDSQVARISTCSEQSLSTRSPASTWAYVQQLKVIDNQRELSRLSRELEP

For this experiment, the target named is Rap guanine nucleotide exchange factor 3 (Homo sapiens) (UniProt O95398). As to the kind of experiment: Validation qHTS for antagonist of cAMP-regulated guanine nucleotide exchange factor 3 (EPAC1).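 Further: plate controls were DMSO for no effect and ATA control for full effect; nearly all actives have a fitted effect of over 75% in size.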 To be noted: EPAC1 Rap1B-BODIPY-GDP exchange, fluorescence; series mostly up to 150 µM; activity change, negative = inhibition: at the top concentration. In a few lines:
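Nucleotide exchange followed as fluorescence loss when BODIPY-GDP leaves Rap1B (480 nm excitation, 540 nm emission), read at 5 min intervals over 30 min. Reaction: 100 nM EPAC1, 250 nM RAP1B-BODIPY-GDP, 50 uM GDP; ATA and DMSO define normalization.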
Take `COc1cccc(Cn2c(=O)c(-c3cccc(C#N)c3)nc3cnc(Nc4ccccc4)nc32)c1`: the “activity change, negative = inhibition” value was inactive: 97.8%.

For the compound `O=C(Nc1ccccc1)N1CCC2(CC1)CCN(C(=O)c1cnccn1)CC2`, the “activity change, negative = inhibition” value was inactive: 20.5%.

As for `c1ccc2ccccc2c1`, the “activity change, negative = inhibition” value was inactive: 9.76%.

Take `O=C(O)c1cc2cc(F)ccc2[nH]1`: the activity change, negative = inhibition result is “inactive”.

As for `CN1CCN(c2ncc3nc(-c4cccs4)c(=O)n(-c4ccccc4)c3n2)CC1`, the “activity change, negative = inhibition” value was inactive: 35.1%.

`O=c1c(-c2cccc(Cl)c2)nc2cncnc2n1Cc1ccccc1`: the “activity change, negative = inhibition” value was inactive: 10.5%.

As for `CC(=O)NCCNc1ncncc1-c1ccccc1C`, the “activity change, negative = inhibition” value was inactive: 0.413%.

Turning to `CCOC(=O)C[C@H]1c2ccccc2S(=O)(=O)N1Cc1ccc(Cl)cc1`, the “activity change, negative = inhibition” value is inactive: 1.27%.

As to `COCCn1c(=O)c(CCc2ccccc2)nc2cnc(N3CCNCC3)nc21`, the “activity change, negative = inhibition” value is inactive: 26.7%.

With `CN1[C@H](CC(=O)c2ccccc2)CCC[C@H]1C[C@H](O)c1ccccc1`, the “activity change, negative = inhibition” value is inactive: 7.89%.

With `O=C(c1ccc(OCCCc2cnc[nH]2)cc1)C1CC1`, the “activity change, negative = inhibition” value is inactive: 10.7% [at 75.8 µM].

Consider `C[C@]12CCC(=O)C=C1CCC1C2C(O)C[C@]2(C)C1CC[C@]2(O)C(=O)CO` (stereo not given in full), for which the “activity change, negative = inhibition” value was inactive: 8.45%.

Consider `CC(=O)OC1CCC2(C)C3=C(CCC2C1(C)C)[C@@]1(C)CCC(C(C)CCC=C(C)C)[C@@]1(C)CC3` (stereo not given in full), for which the “activity change, negative = inhibition” value was inactive: -0.323%.

On to `FC(F)(F)c1ccccc1-c1nccc(NCc2ccccc2)n1`, for which the “activity change, negative = inhibition” value is inactive: 1.73%.

In the case of `COCCn1c(=O)c(-c2cccs2)nc2cnc(Oc3ccc(OC)cc3)nc21`, the “activity change, negative = inhibition” value is inactive: -1.4%.

On to `Cc1nc2cc(NC(=O)[C@@H]3C[C@@H](Sc4ccccn4)CN3Cc3ccc4c(c3)OCCO4)ccc2s1`, for which the “activity change, negative = inhibition” value is inactive: -2.6%.

`CC(=O)OCC1=C(C(=O)O)N2C(=O)[C@@H](NC(=O)Cc3ccccc3)[C@H]2SC1`: the “activity change, negative = inhibition” value was inactive: 16.2%.

On to `CCN1CCCC1CNC(=O)c1cc(S(N)(=O)=O)ccc1OC` (stereo not given), for which the activity change, negative = inhibition entry was “inactive”.

On to `C[N+]1(CC(=O)c2ccccc2)CCc2ccccc2C1` (stereo not given), for which the “activity change, negative = inhibition” value was inactive: 14.5%.

For `CC(=O)OC1CCC2(C)C(CCC3(C)C2C(=O)C=C2C4CC(C)(C(=O)OCCN5CCCCC5)CCC4(C)CCC23C)C1(C)C` (stereo not given), the “activity change, negative = inhibition” value is inactive: 7.76%.

For `COc1ccc(-c2ccc3cc(C(=O)O)ccc3c2)cc1C12CC3CC(CC(C3)C1)C2`, the “activity change, negative = inhibition” value is inactive: 16.6%.

For the compound `O=C(O)/C=C/C(=O)Nc1ccc(S(=O)(=O)Nc2nccs2)cc1`, the “activity change, negative = inhibition” value is inactive: 11%.

Regarding `COc1c2c(nc3occc13)C(CC=C(C)C)(OC)C(=O)C=C2` (stereo not given), the “activity change, negative = inhibition” value was inactive: 15.2%.

Consider `COc1ccc(-n2c(=O)cnc3cnc(N4CCN(C)CC4)nc32)cc1`, for which the “activity change, negative = inhibition” value was inactive: 2.73%.

With `C=C[C@@H]1c2ccccc2N(S(=O)(=O)c2ccc(C)cc2)[C@H](c2ccc(OC(C)=O)cc2)C1(C#N)C#N`, the “activity change, negative = inhibition” value was inactive: 10.2%.

Regarding `CCCCCC(=O)O[C@H](CC(=O)O)C[N+](C)(C)C`, the “activity change, negative = inhibition” value is inactive: -6.89%.

Consider `Cc1cccc(-c2cc(=O)c3cc(Br)ccc3o2)c1`, for which the “activity change, negative = inhibition” value is inactive: 6.76%.

In the case of `O=S(=O)(O)c1ccc(Nc2ncnc3c2ncn3[C@@H]2O[C@H](CO)[C@@H](O)[C@H]2O)cc1`, the “activity change, negative = inhibition” value is inactive: 35.3%.

In the case of `O=c1[nH]c(=O)n([C@H]2C[C@H](O)[C@@H](CO)O2)cc1I`, the “activity change, negative = inhibition” value is inactive: 12.7% [at 75.8 µM].

For the compound `CCCCc1cc2c(=O)c(C(=O)OC)c[nH]c2cc1OCc1ccccc1`, the “activity change, negative = inhibition” value is inactive: -11.2%.

As for `CCCCC/C=C\C/C=C\CCCCCCCC(=O)O`, the activity change, negative = inhibition was inactive: 21.6% [at 15.3 µM].

On to `Cc1cccc(N(C)C(=S)Oc2ccc3ccccc3c2)c1`, for which the activity change, negative = inhibition entry was “inactive”.

As to `CC1(C)SC2C(NC(=O)C(N)c3ccccc3)C(=O)N2C1C(=O)O` (stereo not given), the “activity change, negative = inhibition” value is inactive: -15.7%.

As to `CC(C)N1C[C@@H](NCc2ccccc2O)C[C@H]1C(=O)N1CCN(c2cccc(C(F)(F)F)c2)CC1`, the “activity change, negative = inhibition” value is inactive: 14.9%.

On to `C=CCNC1=C2C[C@@H](C)C[C@H](OC)[C@H](O)[C@@H](C)/C=C(\C)[C@H](OC(N)=O)[C@@H](OC)/C=C\C=C(/C)C(=O)NC(=CC1=O)C2=O`, for which the “activity change, negative = inhibition” value is inactive: -1.13%.

For the compound `Cc1cc(=O)cc2oc3cc(N)c(-c4c(C)cc(O)cc4O)c(C)c3nc1-2`, the “activity change, negative = inhibition” value is inactive: -25.8%.

`O=S1(=O)CCO[C@H]2Cc3ccccc3[C@H]2N1Cc1cccc(F)c1`: the “activity change, negative = inhibition” value was inactive: 8.13%.

Regarding `N[C@@H](COP(=O)(O)O)C(=O)O`, the activity change, negative = inhibition result was “inactive”.

For `COc1cccc(Cn2c(=O)cnc3cnc(OC)nc32)c1`, the “activity change, negative = inhibition” value is inactive: 5.31%.

Turning to `O=C(O)c1cccnc1`, the “activity change, negative = inhibition” value was inactive: 11.7%.

For the compound `CN1CCN(C2=Nc3ccccc3Cc3ccccc32)CC1`, the “activity change, negative = inhibition” value was inactive: 21%.

Consider `CC(C)(C)c1nnc(NS(=O)(=O)c2ccccc2)s1`, for which the “activity change, negative = inhibition” value is inactive: 18%.

For the compound `CCOC(=O)C[n+]1cccc(Br)c1`, the “activity change, negative = inhibition” value was inactive: 10.8%.

With `Cn1c(=O)c(-c2cc(F)cc(F)c2)nc2cncnc21`, the “activity change, negative = inhibition” value is inactive: 16%.

Consider `Cc1cc(=O)c(C(=O)N[C@@H](C(=O)N[C@@H]2C(=O)N3C(C(=O)O)=C(CSc4nnnn4C)CS[C@H]23)c2ccc(O)cc2)c[nH]1`, for which the “activity change, negative = inhibition” value was inactive: -2.71%.

For the compound `CC(C)[C@H]1COCCS(=O)(=O)N1Cc1cccc(Cl)c1`, the “activity change, negative = inhibition” value was inactive: -12.5%.

Consider `CCCCc1oc2ccccc2c1C(=O)c1cc(I)c(OCCN(CC)CC)c(I)c1`, for which the activity change, negative = inhibition entry was “inactive”.

As for `CN(Cc1cnc2nc(N)nc(N)c2n1)c1ccc(C(=O)NC(CCC(=O)O)C(=O)O)cc1` (stereo not given), the “activity change, negative = inhibition” value is inactive: 13.6%.

As for `CC1=CC(=O)OC1Cc1ccc2ccccc2n1` (stereo not given), the “activity change, negative = inhibition” value was inactive: 1.86%.

With `Cc1cnc(CNc2cc(-c3ccccc3C)ncn2)cn1`, the “activity change, negative = inhibition” value was inactive: 3.14%.

These data come from PubChem BioAssay AID1645882 (National Center for Advancing Translational Sciences (NCATS), 2021).
